In PMC10761038:
These are yes or no findings as the source states them, for the method shown. Binding seen in cells or lysates may run through a third protein. Some entries that bind do so weakly or less than the wild type.

Protein sequences, listed by entry. Tags and fused reporters are not part of them.
UniProt P35221: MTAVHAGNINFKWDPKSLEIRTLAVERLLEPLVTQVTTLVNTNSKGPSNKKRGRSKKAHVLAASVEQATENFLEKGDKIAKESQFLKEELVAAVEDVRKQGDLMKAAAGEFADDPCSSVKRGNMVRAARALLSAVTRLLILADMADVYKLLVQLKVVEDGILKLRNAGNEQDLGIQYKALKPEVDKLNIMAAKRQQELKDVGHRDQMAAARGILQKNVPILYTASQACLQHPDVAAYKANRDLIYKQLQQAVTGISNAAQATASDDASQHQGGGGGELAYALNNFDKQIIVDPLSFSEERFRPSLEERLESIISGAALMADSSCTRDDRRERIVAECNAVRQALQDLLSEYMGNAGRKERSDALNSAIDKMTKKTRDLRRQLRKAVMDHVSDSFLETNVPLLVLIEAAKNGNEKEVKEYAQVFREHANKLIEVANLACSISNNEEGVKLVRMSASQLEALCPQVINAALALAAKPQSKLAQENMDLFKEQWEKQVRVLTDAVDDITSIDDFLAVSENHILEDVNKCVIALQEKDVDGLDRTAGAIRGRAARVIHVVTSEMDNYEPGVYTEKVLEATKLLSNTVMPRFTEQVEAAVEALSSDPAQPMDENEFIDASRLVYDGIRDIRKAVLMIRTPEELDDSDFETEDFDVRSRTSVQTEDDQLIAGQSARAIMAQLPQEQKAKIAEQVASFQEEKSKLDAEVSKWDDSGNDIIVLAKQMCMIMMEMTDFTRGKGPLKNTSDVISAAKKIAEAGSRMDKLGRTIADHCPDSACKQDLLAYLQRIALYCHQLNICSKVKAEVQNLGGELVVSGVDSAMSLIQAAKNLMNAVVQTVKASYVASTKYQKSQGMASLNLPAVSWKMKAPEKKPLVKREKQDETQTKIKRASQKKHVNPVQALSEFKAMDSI

Target: T1, Neon-Lgl1-S6A (UniProt Q80Y17)
T1 sequence: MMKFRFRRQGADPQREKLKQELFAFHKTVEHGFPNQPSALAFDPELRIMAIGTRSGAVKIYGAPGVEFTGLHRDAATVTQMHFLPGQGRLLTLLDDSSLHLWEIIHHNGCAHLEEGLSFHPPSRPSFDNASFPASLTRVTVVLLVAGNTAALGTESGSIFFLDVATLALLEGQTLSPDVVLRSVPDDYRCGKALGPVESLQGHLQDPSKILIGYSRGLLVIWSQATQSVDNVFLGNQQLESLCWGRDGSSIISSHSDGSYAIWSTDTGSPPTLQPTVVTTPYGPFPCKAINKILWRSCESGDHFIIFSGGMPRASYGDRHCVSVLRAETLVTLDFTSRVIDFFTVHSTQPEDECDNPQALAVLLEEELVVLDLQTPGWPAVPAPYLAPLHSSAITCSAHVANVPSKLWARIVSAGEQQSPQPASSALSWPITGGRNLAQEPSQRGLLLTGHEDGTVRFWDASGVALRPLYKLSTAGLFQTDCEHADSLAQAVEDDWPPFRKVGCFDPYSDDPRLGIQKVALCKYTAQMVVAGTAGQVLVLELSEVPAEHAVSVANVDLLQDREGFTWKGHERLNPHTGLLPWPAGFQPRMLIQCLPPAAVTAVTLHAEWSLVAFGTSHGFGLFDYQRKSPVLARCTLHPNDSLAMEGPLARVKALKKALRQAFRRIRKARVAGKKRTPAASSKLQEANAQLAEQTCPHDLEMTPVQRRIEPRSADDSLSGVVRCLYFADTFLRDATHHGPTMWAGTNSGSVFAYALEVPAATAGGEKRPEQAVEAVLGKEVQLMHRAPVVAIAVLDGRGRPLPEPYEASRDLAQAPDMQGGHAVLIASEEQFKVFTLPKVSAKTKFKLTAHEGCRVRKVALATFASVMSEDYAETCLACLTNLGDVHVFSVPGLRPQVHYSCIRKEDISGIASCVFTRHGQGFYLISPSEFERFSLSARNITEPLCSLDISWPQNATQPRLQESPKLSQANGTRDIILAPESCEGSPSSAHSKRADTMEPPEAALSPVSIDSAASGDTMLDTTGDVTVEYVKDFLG
Test: co-IP; A549 cell lysates (parental, stably expressing GFP-Scrib or Neon-Lgl1 forms, or tet-shLgl1 without Dox) in NP-40 buffer (20 mM Tris pH 8, 150-200 mM NaCl, 0.5 mM EDTA, 1% NP-40, 1 mM DTT, 5% glycerol); antibody 2 h at 4°C, protein A/G beads, three washes, Western blot; IgG as negative …

binding: binds
Substance: α-catenin (endogenous) (from UniProt P35221 1-906)
